# Reference: PubChem BioAssay AID1508642 (National Center for Advancing Translational Sciences (NCATS), 2021)
# The campaign covered roughly 43,000 compounds. About 200 (0.47%) were called active. Inconclusive means that the source gave no clear call. Such entries were picked first, then a sample of the others. Calls follow the shape of the dose curve; as a rule, active = well fitted cell-killing curve with a large enough effect; inconclusive = small, poorly fitted or top-dose-only effect, or effect the other way; inactive = flat fitted curve, though single readings scatter. Potencies of inconclusive entries are doubtful fits and often do not repeat.
# Experiment: Cell viability qHTS assay in S16 Pmp22-F2sN cells; also: nearly all actives have a fitted effect of over 65% in size
# Settings: S16 Pmp22-F2sN Schwann cells viability, CellTiter-Glo, 24 h; series mostly up to 57.5 µM
# Summary of the method: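 Used to flag compounds lowering reporter output through toxicity, this quantitative HTS measures ATP-based CellTiter-Glo luminescence in S16 Pmp22-F2sN Schwann cells after 24 h compound exposure at 37C.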
# Potency is read from the fitted curve at half-maximal effect; tags tell the direction and shape of the fitted curve.
row,SMILES,Potency
1,O=S(=O)(Nc1cccc(C(F)(F)F)c1)c1ccc(-c2cnc(C3CC3)o2)cc1,"inconclusive: 2 µM [cytotoxic, full curve]"
2,Cc1cc(C)cc(NC(=O)C2CCCN2S(=O)(=O)c2ccc3c(c2)CCCC(=O)N3)c1 (stereo unspecified),"inconclusive: 39.8 µM [cytotoxic, single point]"
3,COc1ccc(CCNC(=O)CCS(=O)(=O)c2cc(Br)cc3c2N(C(C)=O)CC3)cc1OC,"inconclusive: 3.55 µM [cytotoxic, full curve, poor fit]"
4,CCc1ccc(NS(=O)(=O)c2cc(-c3cnc(C4CC4)o3)ccc2C)cc1,"inconclusive: 2 µM [cytotoxic, full curve]"
5,COc1ccccc1CNS(=O)(=O)c1ccc(-c2cnc(C3CC3)o2)cc1,"inconclusive: 39.8 µM [rising, single point]"
6,Cc1ccc(C)c(C(=O)c2c(N)c(-c3nc(-c4ccc5c(c4)OCO5)cs3)c3ccccn23)c1,"inconclusive: 31.6 µM [rising, single point]"
7,CC(C)(C)c1ccc(OCC(=O)Nc2ccc(S(=O)(=O)Nc3ncccn3)cc2)cc1,inactive
8,CCCCc1c(C)nc2c(-c3ccc(OC)cc3)c(C)[nH]n2c1=O,"inconclusive: 15.8 µM [cytotoxic, partial curve, poor fit]"
9,COc1ccccc1NC(=O)CSc1ncc2c(n1)-c1cc(Cl)ccc1N(Cc1ccccc1)S2(=O)=O,"inconclusive: 39.8 µM [cytotoxic, single point]"
10,CCOC(=O)c1cccc(NS(=O)(=O)c2ccc(-c3cnc(C4CC4)o3)cc2)c1,"inconclusive: 5.01 µM [cytotoxic, partial curve]"
11,Clc1ccc(C(c2ccccc2)c2c[nH]c3ccccc23)s1 (stereo unspecified),inactive
12,CCOC(=O)c1c(C)[nH]c(C)c1S(=O)(=O)N1CCN(c2cccc(C(F)(F)F)c2)CC1,"inconclusive: 25.1 µM [cytotoxic, single point]"
13,Cc1ccc(S(=O)(=O)N2CCC(C(=O)Nc3ccc(C)c(Cl)c3)CC2)cc1,inactive
14,CCOC(=O)c1cc(OC(=O)c2ccccc2C)n(-c2ccccc2)n1,"inconclusive: 0.0891 µM [cytotoxic, full curve, poor fit]"
15,CCCN(CCC)S(=O)(=O)c1ccc(C(=O)Nc2sc3c(c2C(=O)OC)CCN(CC)C3)cc1,"inconclusive: 39.8 µM [cytotoxic, single point]"
16,O=C(Nc1cccc(C(F)(F)F)c1)C1CCCN1S(=O)(=O)c1cccc2nsnc12 (stereo unspecified),"inconclusive: 22.4 µM [cytotoxic, single point]"
